Out of some 150,000 compounds screened, about 540 (0.36%) showed an effect of 50% or more. Some of the results follow.
Each molecule was assayed on Plasmodium falciparum (assay: Primary screen in NF54 nanoGlo assay, in single point, at 2uM, 72h; a lower Z score goes with more inhibition). Settings: timepoint 72 hour.
Type: functional, Erythrocyte
For `O=C(NC1CCCC1)c1cc2c(Cl)ccc3c2n1CCO3`, the “% Inhibition” value was 33% and the Z score was -4.75.
For `Clc1ccccc1Cn1cc(-c2nc(-c3ccc4[nH]cnc4c3)no2)nn1`, the “% Inhibition” value was -9% and the Z score was 1.27.
With `CC(C)c1ccc(C(C)(C)C)cc1S(N)(=O)=O` the “% Inhibition” value was -10% and the Z score was 1.29.
For `COc1cc2c(cc1CN1CCC[C@H]1c1ccco1)OCCCO2`, the “% Inhibition” value was -23% and the Z score was 2.51.
In the case of `O=S(=O)(c1cc(Cl)c(Br)cc1Cl)N(CCO)CCO`, the “% Inhibition” value is reported as -6% and the Z score is reported as 0.57.
`Cc1ncn(-c2cc(NCCNC(=O)c3cnccn3)ncn2)c1C` was tested, and the “% Inhibition” value was -15% and the Z score was 2.16.
In the case of `COc1cc2c(cc1OC)CN(C(=O)CN(C)[C@@H](C)c1ccccc1F)CC2`, the “% Inhibition” value is reported as 2% and the Z score is reported as -0.18.
With `CC(C)CN1CCC(N[C@H]2CCc3c(O)cccc32)CC1` the “% Inhibition” value was 10% and the Z score was -0.87.
For `COC[C@H](C)N(Cc1cc(F)ccc1F)C(=O)c1c[nH]nc1-n1cnnn1`, the “% Inhibition” value was -12% and the Z score was 1.76.
For `CC(C)c1noc(-c2nc(-c3ccc4c(c3)OCO4)no2)n1`, the “% Inhibition” value was -7% and the Z score was 0.63.
`COc1cccc(C(c2c(C)nn(-c3ccccc3)c2O)c2c(C)nn(-c3ccccc3)c2O)c1OC` was tested, and the “% Inhibition” value was -22% and the Z score was 2.62.
For `Cc1c[nH]c(CN2CC[C@H](NC(=O)c3ccccc3)[C@@H](O)C2)c(C)c1=O`, the “% Inhibition” value was -17% and the Z score was 1.56.
`Cc1[nH]c2ccccc2c1CCn1ccnc1-c1ccccc1C(=O)O` was tested, and the “% Inhibition” value was -8% and the Z score was 0.89.
For `CCc1nc(C)ncc1C(=O)N[C@@H](C)C(C)(C)C`, the “% Inhibition” value was -10% and the Z score was 1.01.
`COc1ccc(N[C@@H](C)c2ccc(NC(C)=O)cc2)cn1` was tested, and the “% Inhibition” value was -5% and the Z score was 0.58.
For `O=C(Nc1ccc(N2CCOCC2)cc1)[C@@H]1CC=CCC1`, the “% Inhibition” value was 34% and the Z score was -3.81.
In the case of `CC(C)c1noc([C@@H]2CCCN2S(=O)(=O)c2ccc3c(c2)CCC(=O)N3)n1`, the “% Inhibition” value is reported as 9% and the Z score is reported as -1.12.
In the case of `CCCc1c(C(=O)N2CCN(c3nc4cc(C)c(C)cc4nc3C(=O)OCC)CC2)cnn1-c1ccccc1`, the “% Inhibition” value is reported as -3% and the Z score is reported as 0.33.
In the case of `CCOC(=O)C[C@H]1COCCN1C(=O)c1cncn1C`, the “% Inhibition” value is reported as -12% and the Z score is reported as 2.2.
With `O=C1C[C@H](c2ccc(O)c(Cl)c2)c2c(n(C3CCCCCCC3)[nH]c2=O)N1` the “% Inhibition” value was 27% and the Z score was -3.02.
`CCc1cccc2sc(NCCCN3CCOCC3)nc12` was tested, and the “% Inhibition” value was 4% and the Z score was -0.51.
With `Cc1nc(-n2cnnc2)ccc1-c1ccc(C(=O)NC[C@H]2CCCO2)cc1` the “% Inhibition” value was -3% and the Z score was 0.37.
In the case of `CCn1cc(C)c(NOCCCN2C(=O)c3ccccc3C2=O)nc1=O`, the “% Inhibition” value is reported as -4% and the Z score is reported as 0.77.
In the case of `CN(C)c1cc(NC(=O)C(=O)Nc2cccc(Oc3ccnc4ccccc34)c2)cc(C(F)(F)F)c1`, the “% Inhibition” value is reported as -18% and the Z score is reported as 1.89.
`CC(=O)N(Cc1ccccn1)c1ccc(Cl)cc1` was tested, and the “% Inhibition” value was -2% and the Z score was 0.2.
In the case of `CCC(C)NC(=O)c1cn2c3c(cccc3c1=O)CC2C` (stereo unspecified), the “% Inhibition” value is reported as 4% and the Z score is reported as -0.47.
In the case of `Cc1cc(-c2nc(-c3ccncc3)no2)c(=O)[nH]c1C`, the “% Inhibition” value is reported as -13% and the Z score is reported as 1.57.
For `c1cc(CNCCOc2ccc3c(c2)OCO3)c2[nH]ncc2c1`, the “% Inhibition” value was 4% and the Z score was -0.72.
`CCCn1nccc1-c1ccc(-n2cnnc2)nc1C` was tested, and the “% Inhibition” value was -9% and the Z score was 1.61.
`O=C1N[C@@H](c2cnc(N3CCOCC3)nc2)Nc2ncccc21` was tested, and the “% Inhibition” value was -13% and the Z score was 1.22.
With `CCCCN(CC(N)=O)CC(=O)N1CCC[C@H](C)C1` the “% Inhibition” value was -9% and the Z score was 0.87.
In the case of `COc1ccc2c(-c3c(-c4ccccc4)ncn3Cc3ncn[nH]3)cn(C)c2c1`, the “% Inhibition” value is reported as -1% and the Z score is reported as 0.06.
`CCc1nc(Cn2nnnc2C(C)(C)C)cs1` was tested, and the “% Inhibition” value was -5% and the Z score was 0.43.
For `Cc1ccc(N2CCNC2=O)cc1NC(=O)N1Cc2cnn(C)c2CC(C)(C)C1`, the “% Inhibition” value was -13% and the Z score was 2.61.
For `Cc1cccc(CN2CCn3c(nn(C)c3=O)C2)c1`, the “% Inhibition” value was -21% and the Z score was 3.6.
With `Cc1c([C@H](C)NC(=O)c2cncn2C)cnn1C` the “% Inhibition” value was -4% and the Z score was 0.79.
In the case of `O=C(Nc1nocc1C1CC1)c1ccnc(C2CC2)n1`, the “% Inhibition” value is reported as -16% and the Z score is reported as 2.11.
With `CN(CC(=O)Nc1sc2c(c1C#N)CCC2)Cc1cnn(Cc2ccccc2)c1` the “% Inhibition” value was 13% and the Z score was -1.57.
For `CCN(CC)[C@@H](C)CNS(=O)(=O)c1cnn(C)c1`, the “% Inhibition” value was -2% and the Z score was 0.22.
With `CCN(CC)c1ccc(C(=O)N2C[C@H](c3cccc(OC)c3)[C@@H](N)C2)cc1` the “% Inhibition” value was -1% and the Z score was 0.13.
For `Cc1cccc(CC(CNC(=O)C2CC2C)C(=O)O)c1` (stereo unspecified), the “% Inhibition” value was -13% and the Z score was 1.46.
In the case of `O=C(c1cccc2ccccc12)N1CC[C@@]2(CCCN(CC3CC3)C2)C1`, the “% Inhibition” value is reported as 7% and the Z score is reported as -0.91.
For `CC(C)(C)CC(=O)N[C@@H]1CC[C@H]2CCOc3ccccc3C(=O)N3CCN(Cc4cccnc4)C[C@H]3C(=O)NC[C@H]1O2`, the “% Inhibition” value was -4% and the Z score was 0.56.
For `CC(C)C(=O)N1CC[C@H](NC2Cc3ccccc3C2)C1`, the “% Inhibition” value was -5% and the Z score was 0.5.
For `c1cn(-c2nc(-n3ccnc3)nc(-n3ccnc3)n2)cn1`, the “% Inhibition” value was 4% and the Z score was -0.54.
In the case of `C[C@@H](c1ccco1)N(C)Cc1c[nH]nc1-c1ccc(F)cc1F`, the “% Inhibition” value is reported as -5% and the Z score is reported as 0.68.
In the case of `CCn1cc(S(=O)(=O)Nc2ncc(S(=O)(=O)NC(C)(C)C)s2)cn1`, the “% Inhibition” value is reported as -5% and the Z score is reported as 1.01.
In the case of `CCCCc1nc(CN2CCn3nc(C#N)cc3C2)c[nH]1`, the “% Inhibition” value is reported as 4% and the Z score is reported as -0.52.
`c1cnc(NC2CCN(c3ncnc4c3CCNC4)CC2)nc1` was tested, and the “% Inhibition” value was 0% and the Z score was 0.02.
`N[C@@H](CCc1ccccc1)c1ccc2c(c1)CCO2` was tested, and the “% Inhibition” value was 7% and the Z score was -1.01.
In the case of `CC(CNC(=O)c1ccc(CN2CC(=O)N3CCCC3C2=O)cc1)c1ccccc1` (stereo unspecified), the “% Inhibition” value is reported as -13% and the Z score is reported as 2.48.
For `CCc1nocc1CN1CCn2cncc2C1`, the “% Inhibition” value was 2% and the Z score was -0.23.
In the case of `CC(C)c1nc(CNC(=O)c2ccc(N[C@@H](C)Cn3cncn3)nc2)no1`, the “% Inhibition” value is reported as 4% and the Z score is reported as -0.65.
With `CC(C)(C)OC(=O)N1CCC[C@@H]1CCC(=O)NCCOc1cccc(F)c1` the “% Inhibition” value was -3% and the Z score was 0.42.
`Cc1cc(=O)[nH]cc1C(=O)Nc1ccc(N2CCOC[C@@H]2C)cc1` was tested, and the “% Inhibition” value was 8% and the Z score was -0.76.
For `CCC1(CC)Oc2ccc(N[C@@H](C)c3cncc(F)c3)cc2O1`, the “% Inhibition” value was -12% and the Z score was 1.92.
`C[C@@H](Cc1ccc(OC(F)(F)F)cc1)C(=O)NCc1cnn(C)n1` was tested, and the “% Inhibition” value was 4% and the Z score was -0.51.
`CC(C)(C)OC(=O)NC1CCCCCCC1C(=O)O` (stereo unspecified) was tested, and the “% Inhibition” value was 1% and the Z score was -0.06.
`COc1ccc([C@@H](C)NC(=O)N(CCO)Cc2nccn2C)cc1` was tested, and the “% Inhibition” value was -13% and the Z score was 1.17.
`Cc1cc(C(=O)N2CCOC[C@H](Oc3ccc(S(C)(=O)=O)cc3)C2)no1` was tested, and the “% Inhibition” value was 11% and the Z score was -1.33.
In the case of `CCCCC(=O)Nc1ccc(Br)cn1`, the “% Inhibition” value is reported as -6% and the Z score is reported as 0.77.
In the case of `Cc1ccc(N2CN(CC(=O)Nc3ccc(C)c(F)c3)S(=O)(=O)c3cccnc32)cc1`, the “% Inhibition” value is reported as -23% and the Z score is reported as 2.48.
With `CC[C@H](C(=O)NCc1ccc(O)c(OC)c1)C1(O)CCCCC1` the “% Inhibition” value was -12% and the Z score was 1.23.
For `CC(=O)N[C@@H]1C[C@H](CC(C)C)O[C@H](c2c(C)n(C)n(-c3ccccc3)c2=O)C1`, the “% Inhibition” value was -2% and the Z score was 0.33.
In the case of `OC1CCN(CCCNc2ncnc3c2Cc2ccccc2OC3)CC1`, the “% Inhibition” value is reported as 10% and the Z score is reported as -1.34.
`O=C(C1CC1)[C@@H]1CN(C(=O)Cc2cccc(Br)c2)CCO1` was tested, and the “% Inhibition” value was -4% and the Z score was 0.49.
With `C[C@@]1(C(=O)NC2CCCCCC2)Cn2c(ccc2-c2ccco2)C(=O)N1Cc1cccc(Cl)c1` the “% Inhibition” value was -19% and the Z score was 1.83.
In the case of `COC(=O)C1(NC(=O)Nc2cccc(Oc3c(F)c(F)c(F)c(F)c3F)c2)CCCCC1`, the “% Inhibition” value is reported as 3% and the Z score is reported as -0.43.
For `CC(C)c1cc(C(=O)N(C)Cc2ccc(-n3cccn3)cc2)[nH]n1`, the “% Inhibition” value was -1% and the Z score was 0.24.
In the case of `C[C@@H](C(=O)N(CCC#N)c1ccccc1)n1cc(-c2cnn(C)c2)nn1`, the “% Inhibition” value is reported as -1% and the Z score is reported as 0.12.
In the case of `FC(F)(F)c1cccc([C@H]2CCN(Cc3nnc(C4CC4)o3)C2)c1`, the “% Inhibition” value is reported as 3% and the Z score is reported as -0.28.
For `Cc1ccccc1[C@H](CNC(=O)N1CC(c2ccccn2)C1)N1CCC(C)CC1`, the “% Inhibition” value was -13% and the Z score was 1.19.
For `O=C(Nc1ccc(F)cc1F)N1C[C@@H](F)[C@@H](OCc2nc3ccccc3o2)C1`, the “% Inhibition” value was -3% and the Z score was 0.42.
In the case of `O=C(CCC1CCCC1)N1CC(N(Cc2cccnc2)C(=O)Nc2ccccc2)C1`, the “% Inhibition” value is reported as -3% and the Z score is reported as 0.51.
In the case of `CCN(CC)c1nc(Nc2ccccc2C)nc(Nc2cc(C)ccc2C)n1`, the “% Inhibition” value is reported as -21% and the Z score is reported as 2.23.
With `CCCCN(C)C(=O)C1CCN(c2nnc(-c3ccc(OC)cc3)o2)CC1` the “% Inhibition” value was -8% and the Z score was 1.19.
For `CN1CCNC(=O)C12CCN(c1cnc3ccccc3n1)CC2`, the “% Inhibition” value was 3% and the Z score was -0.45.
For `Cc1cc(NC(=O)C(=O)N2CCc3c(F)cc(F)cc32)nn1C`, the “% Inhibition” value was -12% and the Z score was 1.54.
With `Cc1nn(C)c(C)c1S(=O)(=O)N1CCC[C@@]2(C1)C(=O)Nc1ccccc12` the “% Inhibition” value was 9% and the Z score was -1.65.
`O=S1(=O)CCCN1CCn1nccc1-c1ccc(F)c(Cl)c1` was tested, and the “% Inhibition” value was -14% and the Z score was 2.18.
`O=C(NCCCCN1C(=O)c2ccccc2C1=O)c1cccnc1` was tested, and the “% Inhibition” value was -15% and the Z score was 2.65.
`CN(C(=O)c1cnn(-c2ccccc2)c1)C1C2CCOC2C1(C)C` (stereo unspecified) was tested, and the “% Inhibition” value was -3% and the Z score was 0.55.
In the case of `CCN1C[C@@H](c2ccccc2)CC2(CCN(S(=O)(=O)N(C)C)CC2)C1`, the “% Inhibition” value is reported as -1% and the Z score is reported as 0.15.

From ChEMBL document CHEMBL4888484, “Replenishing the malaria drug discovery pipeline: Screening and hit evaluation of the MMV Hit Generation Library 1 (HGL1) against asexual blood stage Plasmodium falciparum ,using a nano luciferase reporter read-out” (2022)
